# Measured values published in article PMC10318011.
# Amino acid sequences for entries named in this document (tags omitted). A change or cut given only in a name is not applied to a line headed by its entry. Residues count along the entry.
# UniProt Q9UM11: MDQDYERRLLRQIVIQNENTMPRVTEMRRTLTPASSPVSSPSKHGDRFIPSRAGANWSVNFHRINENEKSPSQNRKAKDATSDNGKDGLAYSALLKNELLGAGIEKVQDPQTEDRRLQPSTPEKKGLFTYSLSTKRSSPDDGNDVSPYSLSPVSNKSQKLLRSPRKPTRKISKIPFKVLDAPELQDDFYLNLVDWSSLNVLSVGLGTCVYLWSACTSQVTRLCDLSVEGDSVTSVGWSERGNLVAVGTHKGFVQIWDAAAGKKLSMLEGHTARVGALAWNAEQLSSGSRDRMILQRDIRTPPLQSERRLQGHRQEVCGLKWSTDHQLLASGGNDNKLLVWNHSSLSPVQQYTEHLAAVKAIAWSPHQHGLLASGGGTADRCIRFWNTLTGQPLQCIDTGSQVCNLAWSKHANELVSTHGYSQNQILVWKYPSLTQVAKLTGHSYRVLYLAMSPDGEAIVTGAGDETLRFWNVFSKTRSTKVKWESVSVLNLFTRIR
# UniProt Q96EB6: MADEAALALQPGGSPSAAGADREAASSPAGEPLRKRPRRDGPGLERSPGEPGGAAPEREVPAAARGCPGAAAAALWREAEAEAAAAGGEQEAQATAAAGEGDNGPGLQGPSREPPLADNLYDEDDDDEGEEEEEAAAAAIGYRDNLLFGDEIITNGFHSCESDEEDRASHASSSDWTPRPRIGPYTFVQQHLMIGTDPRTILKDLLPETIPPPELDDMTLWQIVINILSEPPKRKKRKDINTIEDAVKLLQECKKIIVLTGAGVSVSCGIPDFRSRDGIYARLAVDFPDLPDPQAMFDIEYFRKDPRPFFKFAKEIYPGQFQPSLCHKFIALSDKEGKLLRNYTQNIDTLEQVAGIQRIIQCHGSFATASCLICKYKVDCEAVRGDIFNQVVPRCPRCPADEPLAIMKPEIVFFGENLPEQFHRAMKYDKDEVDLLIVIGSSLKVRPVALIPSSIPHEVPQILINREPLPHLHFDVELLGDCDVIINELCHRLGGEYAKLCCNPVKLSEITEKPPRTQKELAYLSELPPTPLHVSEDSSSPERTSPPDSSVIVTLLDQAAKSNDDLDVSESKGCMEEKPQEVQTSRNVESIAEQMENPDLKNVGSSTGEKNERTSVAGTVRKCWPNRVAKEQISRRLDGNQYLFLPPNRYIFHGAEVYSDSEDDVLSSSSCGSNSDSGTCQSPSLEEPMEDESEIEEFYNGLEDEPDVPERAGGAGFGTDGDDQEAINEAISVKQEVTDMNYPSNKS
# GST-SIRT1(114–217): residues 114-217 of Q96EB6
# Results are given in words; binding and its absence hold for the method and conditions named. Binding seen in cells or lysates may run through a third protein. Some results given as binding are weak or reduced against the parent protein; the word gives no strength. For some assays here: Where a sequence is shown, tags or fusion partners need not be part of it.
# T1: GST-AROS (UniProt Q86WX3)
# T1 sequence: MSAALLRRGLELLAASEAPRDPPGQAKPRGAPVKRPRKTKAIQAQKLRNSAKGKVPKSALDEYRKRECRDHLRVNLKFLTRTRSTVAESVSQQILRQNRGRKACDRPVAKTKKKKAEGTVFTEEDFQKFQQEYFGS
# Experiments:
# GST-AROS = target: T1, GST-AROS; test: pull-down; GST pull-down: purified GST, GST-AROS or GST-Cdh1 (2 μg) incubated with 10 μl of in vitro-translated Flag-SIRT1∆ or Flag-SIRT1(114–217); WB with anti-Flag M2; only the target purified
# GST-Cdh1 = GST-Cdh1 (UniProt Q9UM11); test: as above
# Myc-Cdh1 = Myc-Cdh1 (UniProt Q9UM11); test: co-IP; HEK293 cells transfected with Myc-Cdh1 and Flag-SIRT1 WT or Flag-SIRT1∆; IP with anti-Myc antibody, WB with anti-Flag antibody (Fig. 5b; Supplementary Fig. 2-2a under overexpression conditions)
# Flag-SIRT1 WT = Flag-SIRT1 WT (UniProt Q96EB6); test: co-IP; HEK293 cells cotransfected as indicated; IP with anti-Flag antibody, WB with anti-GFP antibody (Fig. 2j)
# GST-SIRT1(114–217) = GST-SIRT1(114–217) (UniProt Q96EB6); test: pull-down; competitive GST pull-down: GST or GST-SIRT1(114–217) and in vitro-translated Myc-Cdh1 incubated with increasing amounts of in vitro-translated Flag-AROS; WB; only the target purified
Molecule,binding (GST-AROS),binding (GST-Cdh1),binding (GST-SIRT1(114–217)),further results
Flag-SIRT1∆ (from UniProt Q96EB6 218-747) (domain or fragment),,,,binding (Myc-Cdh1): no binding
Flag-SIRT1∆ (in vitro translated) (from UniProt Q96EB6 218-747) (domain or fragment),no binding,no binding,,
GFP-Cdh1 (from UniProt Q9UM11 1-496),,,,binding (Flag-SIRT1 WT): binds
"Flag-AROS (in vitro translated) (protein, UniProt Q86WX3 1-136) MSAALLRRGLELLAASEAPRDPPGQAKPRGAPVKRPRKTKAIQAQKLRNSAKGKVPKSALDEYRKRECRDHLRVNLKFLTRTRSTVAESVSQQILRQNRGRKACDRPVAKTKKKKAEGTVFTEEDFQKFQQEYFGS",,,binds,

# Now from value to molecule, other results behind:
binding (GST-AROS),binding (GST-Cdh1),binding (GST-SIRT1(114–217)),Molecule,further results
binds,binds,,Flag-SIRT1(114–217) fragment (from UniProt Q96EB6 114-217) (domain or fragment),
,,binds,Myc-Cdh1 (in vitro translated) (from UniProt Q9UM11 1-496),
